Laboratory results taken from the supplement of paper PMC4967469.
pIC50: −log10 of the molar value. Lines with a small IC50 respond at low doses; a limit (>, <) means that the fit lies beyond the doses tested. The AUC spans the tested range (256-fold, ending at the top dose) of the same fit; values near 1 show little effect. For some assays here: A top dose marked as inferred comes from the curve model; the source does not state it. For some assays here: Where an entry number is given, a second screen of the drug exists; the two often differ.

How the values were obtained:
Assay in all cases: Viability of human cancer cell lines after 72 h of drug (GDSC screen)
PLX4720 = compound: CCCS(=O)(=O)Nc1ccc(F)c(C(=O)c2c[nH]c3ncc(Cl)cc23)c1F [PLX4720]; conditions: top dose 10 µM
Protocol: (§1)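 Human cancer cell lines in 384-well plates, medium with 10% serum, drug for 72 h over a 256-fold dose range (nine 2-fold or five 4-fold steps up to the top dose). Adherent lines were fixed and stained with the nucleic acid dye Syto60, suspension lines read with resazurin; signal relative to control wells, capped at 0 and 100%. One two-parameter sigmoid per drug and line, fitted in a mixed model over all curves with the slope shared within a line.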

PHA-793887 = compound: CC(C)CC(=O)Nc1n[nH]c2c1CN(C(=O)C1CCN(C)CC1)C2(C)C [PHA-793887]; conditions: top dose 10.24 µM
Protocol: as §1

Epothilone B = compound: C/C(=C\c1csc(C)n1)[C@@H]1C[C@@H]2O[C@]2(C)CCC[C@H](C)[C@H](O)[C@@H](C)C(=O)C(C)(C)[C@@H](O)CC(=O)O1 [Epothilone B]; conditions: top dose 0.032 µM; top dose inferred
Protocol: as §1

Y-39983 = compound: C[C@@H](N)c1ccc(C(=O)Nc2ccnc3[nH]ccc23)cc1 [Y-39983]; conditions: top dose 20 µM; top dose inferred
Protocol: as §1

TPCA-1 = compound: NC(=O)Nc1sc(-c2ccc(F)cc2)cc1C(N)=O [TPCA-1]; conditions: top dose 20 µM
Protocol: as §1

[1] = screen: GDSC drug entry 1371, top dose inferred

Question: Which AUC (PLX4720; screen: GDSC drug entry 1036) does the source give for MIA-PaCa-2 (pancreas, adherent) here?
Answer: Its AUC is 0.871.

Question: And the pIC50 (PLX4720; screen: GDSC drug entry 1036)?
Answer: Its pIC50 is under 5.00.

Question: And the AUC (PLX4720; [1])?
Answer: The AUC was 0.969.

Question: What about the pIC50 (PLX4720; [1]) of the same cell line?
Answer: Its pIC50 is under 5.00.

Question: And the AUC (PHA-793887)?
Answer: Its AUC is 0.982.

Question: And the pIC50 (PHA-793887)?
Answer: The pIC50 was under 4.99.

Question: And the AUC (Epothilone B)?
Answer: Its AUC is 0.422.

Question: And the pIC50 (Epothilone B)?
Answer: Its pIC50 is 8.92.

Question: What about the AUC (Y-39983) of the same cell line?
Answer: Its AUC is 0.985.

Question: What about the pIC50 (Y-39983) of the same cell line?
Answer: Its pIC50 is under 4.70.

Question: What about the AUC (TPCA-1) of the same cell line?
Answer: The AUC was 0.982.

Question: And the pIC50 (TPCA-1)?
Answer: The pIC50 was under 4.70.

Question: With MKN1 (stomach, adherent) as the cell line, how does the AUC (PLX4720; screen: GDSC drug entry 1036) read?
Answer: Its AUC is 0.965.

Question: And the pIC50 (PLX4720; screen: GDSC drug entry 1036)?
Answer: The pIC50 was under 5.00.

Question: What about the AUC (PLX4720; [1]) of the same cell line?
Answer: The AUC was 0.982.

Question: And the pIC50 (PLX4720; [1])?
Answer: Its pIC50 is under 5.00.

Question: And the AUC (PHA-793887)?
Answer: The AUC was 0.864.

Question: And the pIC50 (PHA-793887)?
Answer: The pIC50 was 5.01.

Question: What about the AUC (Epothilone B) of the same cell line?
Answer: The AUC was 0.56.

Question: And the pIC50 (Epothilone B)?
Answer: The pIC50 was 8.53.

Question: And the AUC (Y-39983)?
Answer: Its AUC is 0.946.

Question: And the pIC50 (Y-39983)?
Answer: The pIC50 was under 4.70.

Question: And the AUC (TPCA-1)?
Answer: Its AUC is 0.932.

Question: And the pIC50 (TPCA-1)?
Answer: The pIC50 was under 4.70.

Question: For MKN28 (stomach, adherent), which AUC (PLX4720; screen: GDSC drug entry 1036) is on record?
Answer: Its AUC is 0.98.

Question: What about the pIC50 (PLX4720; screen: GDSC drug entry 1036) of the same cell line?
Answer: The pIC50 was under 5.00.

Question: And the AUC (PHA-793887)?
Answer: Its AUC is 0.908.

Question: And the pIC50 (PHA-793887)?
Answer: Its pIC50 is under 4.99.

Question: What about the AUC (Epothilone B) of the same cell line?
Answer: The AUC was 0.337.

Question: What about the pIC50 (Epothilone B) of the same cell line?
Answer: The pIC50 was 9.16.

Question: And the AUC (Y-39983)?
Answer: The AUC was 0.95.

Question: What about the pIC50 (Y-39983) of the same cell line?
Answer: The pIC50 was under 4.70.

Question: And the AUC (TPCA-1)?
Answer: The AUC was 0.895.

Question: And the pIC50 (TPCA-1)?
Answer: Its pIC50 is under 4.70.

Question: What does the source list for MKN45 (stomach, adherent)?
Answer: AUC (PLX4720; [1]): 0.924; pIC50 (PLX4720; [1]): < 5.00; AUC (PHA-793887): 0.864; pIC50 (PHA-793887): < 4.99; AUC (Epothilone B): 0.585; pIC50 (Epothilone B): 8.44; AUC (Y-39983): 0.983; pIC50 (Y-39983): < 4.70; AUC (TPCA-1): 0.964; pIC50 (TPCA-1): < 4.70

Question: What does the source list for ML-1 (thyroid, adherent)?
Answer: AUC (PLX4720; [1]): 0.944; pIC50 (PLX4720; [1]): < 5.00; AUC (PHA-793887): 0.984; pIC50 (PHA-793887): < 4.99; AUC (Epothilone B): 0.397; pIC50 (Epothilone B): 9.00; AUC (Y-39983): 0.981; pIC50 (Y-39983): < 4.70; AUC (TPCA-1): 0.816; pIC50 (TPCA-1): 4.87

Question: Which results are given for MOG-G-CCM (glioma, adherent)?
Answer: AUC (PLX4720; screen: GDSC drug entry 1036): 0.97; pIC50 (PLX4720; screen: GDSC drug entry 1036): < 5.00; AUC (PLX4720; [1]): 0.981; pIC50 (PLX4720; [1]): < 5.00; AUC (PHA-793887): 0.859; pIC50 (PHA-793887): < 4.99; AUC (Epothilone B): 0.646; pIC50 (Epothilone B): 8.26; AUC (Y-39983): 0.772; pIC50 (Y-39983): 5.05; AUC (TPCA-1): 0.806; pIC50 (TPCA-1): 4.91

Question: How did the AUC (PLX4720; screen: GDSC drug entry 1036) turn out when MOG-G-UVW (glioma, adherent) was run?
Answer: The AUC was 0.817.

Question: What about the pIC50 (PLX4720; screen: GDSC drug entry 1036) of the same cell line?
Answer: Its pIC50 is 5.27.

Question: And the AUC (PLX4720; [1])?
Answer: Its AUC is 0.934.

Question: And the pIC50 (PLX4720; [1])?
Answer: Its pIC50 is under 5.00.

Question: What about the AUC (PHA-793887) of the same cell line?
Answer: The AUC was 0.939.

Question: What about the pIC50 (PHA-793887) of the same cell line?
Answer: Its pIC50 is under 4.99.

Question: And the AUC (Epothilone B)?
Answer: Its AUC is 0.483.

Question: What about the pIC50 (Epothilone B) of the same cell line?
Answer: Its pIC50 is 8.74.

Question: And the AUC (Y-39983)?
Answer: Its AUC is 0.97.

Question: And the pIC50 (Y-39983)?
Answer: Its pIC50 is under 4.70.

Question: What about the AUC (TPCA-1) of the same cell line?
Answer: The AUC was 0.906.

Question: What about the pIC50 (TPCA-1) of the same cell line?
Answer: The pIC50 was under 4.70.

Question: How did the AUC (PLX4720; screen: GDSC drug entry 1036) turn out when MS751 (cervix, adherent) was run?
Answer: The AUC was 0.987.

Question: What about the pIC50 (PLX4720; screen: GDSC drug entry 1036) of the same cell line?
Answer: Its pIC50 is under 5.00.

Question: What about the AUC (PLX4720; [1]) of the same cell line?
Answer: Its AUC is 0.989.

Question: And the pIC50 (PLX4720; [1])?
Answer: Its pIC50 is under 5.00.

Question: What about the AUC (PHA-793887) of the same cell line?
Answer: Its AUC is 0.882.

Question: And the pIC50 (PHA-793887)?
Answer: Its pIC50 is 5.03.

Question: And the AUC (Epothilone B)?
Answer: Its AUC is 0.645.

Question: And the pIC50 (Epothilone B)?
Answer: The pIC50 was 8.31.

Question: And the AUC (Y-39983)?
Answer: The AUC was 0.98.

Question: And the pIC50 (Y-39983)?
Answer: Its pIC50 is under 4.70.

Question: And the AUC (TPCA-1)?
Answer: The AUC was 0.962.

Question: And the pIC50 (TPCA-1)?
Answer: The pIC50 was under 4.70.

Question: For Mewo (melanoma, adherent), which AUC (PLX4720; [1]) is on record?
Answer: The AUC was 0.982.

Question: What about the pIC50 (PLX4720; [1]) of the same cell line?
Answer: The pIC50 was under 5.00.

Question: And the AUC (PHA-793887)?
Answer: The AUC was 0.98.

Question: And the pIC50 (PHA-793887)?
Answer: The pIC50 was under 4.99.

Question: What about the AUC (Epothilone B) of the same cell line?
Answer: Its AUC is 0.97.

Question: And the pIC50 (Epothilone B)?
Answer: Its pIC50 is under 7.49.

Question: What about the AUC (Y-39983) of the same cell line?
Answer: The AUC was 0.972.

Question: And the pIC50 (Y-39983)?
Answer: The pIC50 was under 4.70.

Question: What about the AUC (TPCA-1) of the same cell line?
Answer: The AUC was 0.981.

Question: What about the pIC50 (TPCA-1) of the same cell line?
Answer: Its pIC50 is under 4.70.

Question: What does the source list for NCI-H28 (mesothelioma, adherent)?
Answer: AUC (PLX4720; screen: GDSC drug entry 1036): 0.933; pIC50 (PLX4720; screen: GDSC drug entry 1036): < 5.00; AUC (PLX4720; [1]): 0.977; pIC50 (PLX4720; [1]): < 5.00; AUC (PHA-793887): 0.968; pIC50 (PHA-793887): < 4.99; AUC (Epothilone B): 0.782; pIC50 (Epothilone B): 7.74; AUC (Y-39983): 0.955; pIC50 (Y-39983): < 4.70; AUC (TPCA-1): 0.909; pIC50 (TPCA-1): < 4.70

Question: With “NCI-H196 (small cell lung carcinoma, adherent)” as the cell line, how does the AUC (PLX4720; [1]) read?
Answer: Its AUC is 0.987.

Question: What about the pIC50 (PLX4720; [1]) of the same cell line?
Answer: The pIC50 was under 5.00.

Question: What about the AUC (PHA-793887) of the same cell line?
Answer: The AUC was 0.965.

Question: What about the pIC50 (PHA-793887) of the same cell line?
Answer: Its pIC50 is under 4.99.

Question: What about the AUC (Epothilone B) of the same cell line?
Answer: The AUC was 0.933.

Question: What about the pIC50 (Epothilone B) of the same cell line?
Answer: The pIC50 was under 7.49.

Question: What about the AUC (Y-39983) of the same cell line?
Answer: Its AUC is 0.969.

Question: What about the pIC50 (Y-39983) of the same cell line?
Answer: Its pIC50 is under 4.70.

Question: And the AUC (TPCA-1)?
Answer: Its AUC is 0.927.

Question: What about the pIC50 (TPCA-1) of the same cell line?
Answer: Its pIC50 is under 4.70.
